Laboratory results from the supplement of paper PMC4166925.
± gives the standard deviation of the averaged measurements. Whole data set: some 33,000 sequences, median “E-score (dimensionless, -0.5 to 0.5)” near -0.049, cut for the highest 2% near 0.37. The list shows a part of the results.

test system: T1, PmTbr T-box DNA-binding domain (GST fusion); assay: PBM E-score of 8-mer (E-score (dimensionless, -0.5 to 0.5)); Tbr is Tbrain of the sea star Patiria miniata (Pm) or the sea urchin Strongylocentrotus purpuratus (Sp); higher = stronger binding preference; most listed sequences are background and not binding sites; conditions: the construct has about 5 more residues each side
T1 sequence: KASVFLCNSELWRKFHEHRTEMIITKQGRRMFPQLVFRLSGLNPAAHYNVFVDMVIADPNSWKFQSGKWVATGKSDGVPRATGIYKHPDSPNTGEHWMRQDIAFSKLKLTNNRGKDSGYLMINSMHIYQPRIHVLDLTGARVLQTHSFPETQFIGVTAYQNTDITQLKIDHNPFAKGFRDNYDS
Method in brief: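 Each ungapped 8-mer received an enrichment E-score from the Universal PBM Analysis Suite, averaged over duplicate arrays. The proteins were Tbr T-box DNA-binding domains, covering the whole T-box plus about five flanking residues, fused to GST and expressed in BL21 E. coli at 20 °C before glutathione affinity purification. Universal Agilent oligonucleotide arrays were made double-stranded by primer extension and incubated with 200 nM protein in PBS (pH 7.5). The arrays were then scanned and quantified, and every 8-mer was scored from probe intensities.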

Row | Sequence | PBM E-score of 8-mer
1 | AGGTGGAG | 0.141 ± 0.0032
2 | CGATGCGA | 0.183 ± 0.048
3 | GAAACAAA | -0.0528 ± 0.14
4 | CTAGCTAG | 0.117 ± 0.11
5 | AGACGACC | -0.0508 ± 0.043
6 | AGCGACCT | -0.012 ± 0.048
7 | GCTAGTCC | 0.0125 ± 0.013
8 | AATTCTCA | 0.266 ± 0.049
9 | AAAGAAAG | -0.153 ± 0.024
10 | AATAGCAT | 0.0415 ± 0.015
11 | AGCTCTGA | -0.173 ± 0.028
12 | CCGGTTGA | -0.165 ± 0.038
13 | ATCGTGGC | -0.0809 ± 0.0066
14 | GGGGATTA | 0.000805 ± 0.048
15 | TGCAAAAA | 0.0937 ± 0.048
16 | ATTTCTCG | 0.0909 ± 0.072
17 | AGGAGCGC | 0.014 ± 0.096
18 | GGCTGATA | -0.177 ± 0.022
19 | GTACGGAC | -0.204 ± 0.007
20 | GAATTACC | -0.0978 ± 0.03
21 | GGCTGCCC | -0.198 ± 0.092
22 | ACGAGCGG | -0.2651 ± 0.00084
23 | GCGCCAGC | 0.152 ± 0.0098
24 | ATCCCGGA | -0.189 ± 0.013
25 | CAACCAGC | -0.0243 ± 0.034

Row | Sequence | PBM E-score of 8-mer
26 | ACAGGGGG | -0.0905 ± 0.085
27 | AAATGGAT | -0.118 ± 0.16
28 | CGAGTATC | -0.0272 ± 0.042
29 | GCCGAGAA | 0.0847 ± 0.017
30 | AGTTTCTA | -0.162 ± 0.0097
31 | CTTTCAGC | -0.0875 ± 0.067
32 | CGGCTATA | -0.139 ± 0.00038
33 | AACCCCTT | -0.119 ± 0.016
34 | TCGATTAA | -0.11 ± 0.071
35 | AGTGCGCC | -0.0423 ± 0.032
36 | CAAGCACC | 0.129 ± 0.016
37 | CTTACCTA | -0.153 ± 0.059
38 | GACTCGAC | 0.0517 ± 0.016
39 | CTCCAAAA | -0.0316 ± 0.018
40 | ACCACACG | 0.214 ± 0.021
41 | GCCTGGTA | -0.0642 ± 0.0014
42 | CATGGAGG | -0.0825 ± 0.028
43 | CTAGCGCC | 0.316 ± 0.015
44 | GGTCTAAC | -0.0483 ± 0.015
45 | CACTACCA | 0.0676 ± 0.018
46 | AAGTGTGC | 0.368 ± 0.0052
47 | GCTGTTAC | 0.0246 ± 0.042
48 | AACCAACT | -0.21 ± 0.1
49 | GTAGAGAC | -0.16 ± 0.0056
50 | ATTTGGTC | -0.154 ± 0.024

Row | Sequence | PBM E-score of 8-mer
51 | ACATAACC | 0.0736 ± 0.062
52 | ACGCATCC | 0.000205 ± 0.0071
53 | CAGCGTGG | -0.168 ± 0.1
54 | CCTTTTGA | 0.0173 ± 0.049
55 | GCGTACAA | -0.114 ± 0.0045
56 | CACGGCTC | 0.052 ± 0.075
57 | ACTATGCG | 0.153 ± 0.013
58 | CTCGCATC | 0.176 ± 0.033
59 | AGCATGAA | 0.059 ± 0.017
60 | ATGACCTC | -0.0665 ± 0.086
61 | AATGGTCT | -0.0374 ± 0.12
62 | GGGCAAGA | -0.204 ± 0.023
63 | ACTCAGCG | 0.0254 ± 0.026
64 | GATTAGAA | -0.177 ± 0.0093
65 | CTTCAGAC | -0.158 ± 0.061
66 | CTATGTTA | -0.0642 ± 0.038
67 | CATGTACA | -0.142 ± 0.046
68 | CCGTTTAC | 0.0341 ± 0.013
69 | AACTGCGC | -0.0804 ± 0.038
70 | AGGGGAAA | -0.17 ± 0.026
71 | AATTGGCG | 0.0711 ± 0.011
72 | CCGTGACG | 0.166 ± 0.029
73 | AAGATTTG | -0.0886 ± 0.055
74 | CAACGTCC | -0.158 ± 0.019
75 | GTAGCCAC | -0.214 ± 0.11

Row | Sequence | PBM E-score of 8-mer
76 | GATGATGA | -0.189 ± 0.025
77 | ATTACTCC | -0.0311 ± 0.025
78 | AAGATTGT | 0.189 ± 0.042
79 | GAGTAGGA | -0.166 ± 0.024
80 | CAACTAGA | -0.123 ± 0.065
81 | AAGATATC | -0.0286 ± 0.018
82 | CTATTTGC | -0.00357 ± 0.0087
83 | CCTCGTTA | -0.192 ± 0.065
84 | CTTATATA | 0.0789 ± 0.052
85 | CGCACTTC | 0.324 ± 0.0058
86 | AAATTACA | 0.0517 ± 0.2
87 | GCGGCTTA | -0.145 ± 0.0061
88 | GTCAAATA | 0.0141 ± 0.005
89 | ACATCTTC | -0.0652 ± 0.035
90 | AAGAGGCT | -0.1486 ± 0.0013
91 | GGTCGGCA | -0.101 ± 0.02
92 | GATCGCGC | 0.289 ± 0.018
93 | TCCCTAGA | -0.22 ± 0.045
94 | CGTTCATA | -0.113 ± 0.039
95 | CAACCTGA | -0.03504 ± 0.00031
96 | CACGATAA | 0.0347 ± 0.032
97 | CATGCCGC | 0.016 ± 0.073
98 | ACCGTTAA | 0.1245 ± 0.00073
99 | GAGTTTGA | 0.0377 ± 0.06
100 | ACCTGGCC | -0.0129 ± 0.034

Row | Sequence | PBM E-score of 8-mer
101 | CATATACG | -0.13 ± 0.02
102 | ACGGAAAC | 0.101 ± 0.029
103 | AACAAGGA | -0.0644 ± 0.059
104 | GGAGCTCC | -0.355 ± 0.038
105 | CCTGGGCG | 0.145 ± 0.087
106 | ATTTATCG | 0.194 ± 0.021
107 | CGAGTGCC | 0.154 ± 0.014
108 | CCTACCAG | 0.00153 ± 0.031
109 | GCATACTA | -0.108 ± 0.094
110 | CCTAGCTA | 0.00928 ± 0.0051
111 | CCGGGTCA | -0.0462 ± 0.096
112 | CAGAAAGA | -0.00519 ± 0.014
113 | CACATTTA | 0.23 ± 0.1
114 | TGAAATCA | 0.127 ± 0.024
115 | CCCATTCA | -0.0535 ± 0.018
116 | ACTTGAAA | -0.142 ± 0.061
117 | ATACAACC | 0.0288 ± 0.011
118 | ACCGATGA | -0.0124 ± 0.019
119 | CGTTTGGC | 0.0402 ± 0.11
120 | AGGTTGTG | 0.16 ± 0.052
121 | ATGGCCGC | -0.107 ± 0.026
122 | CACGTAGA | 0.0877 ± 0.045
123 | CGACTAAC | 0.114 ± 0.016
124 | GAACCCCA | -0.161 ± 0.09
125 | CCGATCTC | -0.139 ± 0.05

Row | Sequence | PBM E-score of 8-mer
126 | CGGTACAG | -0.2 ± 0.043
127 | AGTGAATC | -0.0519 ± 0.0038
128 | CGGTTAAG | -0.106 ± 0.071
129 | AAGGACCT | -0.293 ± 0.035
130 | CACATCCG | 0.23 ± 0.014
131 | GAATCCCC | -0.042 ± 0.088
132 | GCAAGAGC | -0.144 ± 0.11
133 | CGATGACG | 0.0958 ± 0.0023
134 | GCCAGTCA | 0.0625 ± 0.0016
135 | ACTCAGTC | 0.0109 ± 0.044
136 | AGCATAAT | -0.0872 ± 0.074
137 | GCCCTCTA | -0.184 ± 0.013
138 | ACGCTCAG | 0.05 ± 0.0094
139 | GCAGGGCA | -0.118 ± 0.044
140 | AAAACATG | -0.0125 ± 0.029
141 | CAGTTACA | 0.056 ± 0.018
142 | GCGATTCA | 0.04 ± 0.0093
143 | AGCTGATC | -0.124 ± 0.059
144 | CTCTCGAC | 0.0791 ± 0.013
145 | AGATATCG | 0.105 ± 0.0051
146 | AGGGACCG | -0.32 ± 0.038
147 | CGACGGGA | -0.129 ± 0.036
148 | AGTAGTAA | -0.0631 ± 0.039
149 | CACTGTGA | 0.234 ± 0.022
150 | CTCTTGAA | -0.374 ± 0.012

Row | Sequence | PBM E-score of 8-mer
151 | AATTAGAC | -0.052 ± 0.019
152 | AGGAGCGA | 0.00809 ± 0.0052
153 | ATTGGTCA | 0.00472 ± 0.024
154 | ATCCGGCA | -0.0845 ± 0.015
155 | ATGACTAG | -0.149 ± 0.1
156 | ATCATCGA | -0.127 ± 0.086
157 | TACGCAAA | -0.118 ± 0.039
158 | ATAGAACG | -0.0824 ± 0.027
159 | AGTCGAGA | -0.0238 ± 0.021
160 | TAGTGGCA | 0.248 ± 0.016
161 | AAAGGCAG | -0.198 ± 0.036
162 | TCAACGGA | -0.111 ± 0.0019
163 | CAACGATC | -0.125 ± 0.086
164 | AGCTGTCA | 0.3661 ± 0.003
165 | AACGGCTC | 0.187 ± 0.048
166 | CTCCACTC | -0.0788 ± 0.081
167 | CGCCTTAG | 0.256 ± 0.018
168 | AACGCCCA | 0.0946 ± 0.066
169 | CAGAAACC | -0.149 ± 0.044
170 | CGTTCGGA | 0.035 ± 0.041
171 | CACAGGGA | -0.19 ± 0.017
172 | CAAGGCTG | 0.0203 ± 0.035
